# The list shows a part of the results.
# B1: Epa15 (Candida glabrata) (protein)
# chain: MGSSHHHHHHSSGLVPRGSHMASDPTTFPLGCSPEFTKTKKGLSMELYRYDYLPPGSYPCWDSAYLNPSYPRTGYKAKKLIATVDGVSGDINFKFNPKFGCKAIPDYLPSNFNYHEPITITNFTMILYGYFMPKTTAFHTFYVTADDLLFMNFGAGNAFDCCRREETADKFGNYAAYSVWGKKSLKNELTVYLHTGVYYPIRLFYNNRDYIAQLDIRFKTEHSNAIITNFTDYFYSVDDSSLGCPGLI
# What was measured:
# Experiment in all cases: glycan array binding signal (z-score within array); higher = stronger binding
# Conditions in all cases: glycan notation: IUPAC condensed, linker removed
# [1] = molecular target: Fuc(a1-2)[Gal(a1-3)]Gal(b1-3)GlcNAc(b1-3)GalNAc
# Outline: (§1)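 The binding signal is a Z-score computed within each array. Data were drawn from 3228 arrays in the Consortium for Functional Glycomics database, restricted to those with a known protein sequence. Scores were averaged over arrays of the same protein sequence at different concentrations or buffers, and over linkers, and negative values can be taken as non-binding.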
# [2] = molecular target: Fuc(a1-2)[Gal(a1-3)]Gal(b1-3)GlcNAc(b1-6)GalNAc
# Outline: as §1
# [3] = molecular target: Fuc(a1-2)[Gal(a1-3)]Gal(b1-4)Glc
# Outline: as §1
# [4] = molecular target: Fuc(a1-2)[Gal(a1-3)]Gal(b1-4)GlcNAc
# Outline: as §1
# [5] = molecular target: Fuc(a1-2)[Gal(a1-3)]Gal(b1-4)GlcNAc(b1-2)Man
# Outline: as §1
# [6] = molecular target: Fuc(a1-2)[Gal(a1-3)]Gal(b1-4)GlcNAc(b1-2)Man(a1-3)[Fuc(a1-2)[Gal(a1-3)]Gal(b1-4)GlcNAc(b1-2)Man(a1-6)]Man(b1-4)GlcNAc(b1-4)GlcNAc
# Outline: as §1
# [7] = molecular target: Fuc(a1-2)[Gal(a1-3)]Gal(b1-4)GlcNAc(b1-2)Man(a1-3)[Fuc(a1-2)[Gal(a1-3)]Gal(b1-4)GlcNAc(b1-2)Man(a1-6)]Man(b1-4)GlcNAc(b1-4)[Fuc(a1-6)]GlcNAc
# Outline: as §1
# [8] = molecular target: Fuc(a1-2)[Gal(a1-3)]Gal(b1-4)GlcNAc(b1-3)GalNAc
# Outline: as §1
# [9] = molecular target: Fuc(a1-2)[Gal(a1-3)]Gal(b1-4)GlcNAc(b1-3)[Fuc(a1-2)[Gal(a1-3)]Gal(b1-4)GlcNAc(b1-6)]GalNAc
# Outline: as §1
# [10] = molecular target: Fuc(a1-2)[Gal(a1-3)]Gal(b1-4)GlcNAc(b1-6)GalNAc
# Outline: as §1
# [11] = molecular target: Fuc(a1-2)[Gal(a1-3)]Gal(b1-4)[Fuc(a1-3)]Glc
# Outline: as §1
# [12] = molecular target: Fuc(a1-2)[Gal(a1-3)]Gal(b1-4)[Fuc(a1-3)]GlcNAc
# Outline: as §1
# [13] = molecular target: Fuc(a1-2)[Gal(a1-3)]Gal(b1-4)[Fuc(a1-3)]GlcNAc(b1-3)GalNAc
# Outline: as §1
# [14] = molecular target: Fuc(a1-2)[Gal(a1-4)]Gal(b1-4)GalNAc
# Outline: as §1
# [15] = molecular target: Fuc(a1-2)[Gal(a1-4)]Gal(b1-4)GlcNAc
# Outline: as §1
# [16] = molecular target: Fuc(a1-2)[GalNAc(a1-3)]Gal
# Outline: as §1
# [17] = molecular target: Fuc(a1-2)[GalNAc(a1-3)]Gal(b1-3)GalNAc(a1-3)[Fuc(a1-2)]Gal(b1-4)GlcNAc
# Outline: as §1
# [18] = molecular target: Fuc(a1-2)[GalNAc(a1-3)]Gal(b1-3)GalNAc(b1-3)Gal(a1-4)Gal(b1-4)Glc
# Outline: as §1
# [19] = molecular target: Fuc(a1-2)[GalNAc(a1-3)]Gal(b1-3)GlcNAc
# Outline: as §1
# [20] = molecular target: Fuc(a1-2)[GalNAc(a1-3)]Gal(b1-3)GlcNAc(b1-2)Man(a1-3)[Fuc(a1-2)[GalNAc(a1-3)]Gal(b1-3)GlcNAc(b1-2)Man(a1-6)]Man(b1-4)GlcNAc(b1-4)GlcNAc
# Outline: as §1
# [21] = molecular target: Fuc(a1-2)[GalNAc(a1-3)]Gal(b1-3)GlcNAc(b1-2)Man(a1-3)[Fuc(a1-2)[GalNAc(a1-3)]Gal(b1-3)GlcNAc(b1-2)Man(a1-6)]Man(b1-4)GlcNAc(b1-4)[Fuc(a1-6)]GlcNAc
# Outline: as §1
# [22] = molecular target: Fuc(a1-2)[GalNAc(a1-3)]Gal(b1-3)GlcNAc(b1-3)GalNAc
# Outline: as §1
# [23] = molecular target: Fuc(a1-2)[GalNAc(a1-3)]Gal(b1-3)GlcNAc(b1-6)GalNAc
# Outline: as §1
# [24] = molecular target: Fuc(a1-2)[GalNAc(a1-3)]Gal(b1-4)Glc
# Outline: as §1
# [25] = molecular target: Fuc(a1-2)[GalNAc(a1-3)]Gal(b1-4)GlcNAc
# Outline: as §1
# [26] = molecular target: Fuc(a1-2)[GalNAc(a1-3)]Gal(b1-4)GlcNAc(b1-2)Man
# Outline: as §1
# [27] = molecular target: Fuc(a1-2)[GalNAc(a1-3)]Gal(b1-4)GlcNAc(b1-2)Man(a1-3)[Fuc(a1-2)[GalNAc(a1-3)]Gal(b1-4)GlcNAc(b1-2)Man(a1-6)]Man(b1-4)GlcNAc(b1-4)GlcNAc
# Outline: as §1
# [28] = molecular target: Fuc(a1-2)[GalNAc(a1-3)]Gal(b1-4)GlcNAc(b1-2)Man(a1-3)[Fuc(a1-2)[GalNAc(a1-3)]Gal(b1-4)GlcNAc(b1-2)Man(a1-6)]Man(b1-4)GlcNAc(b1-4)[Fuc(a1-6)]GlcNAc
# Outline: as §1
# [29] = molecular target: Fuc(a1-2)[GalNAc(a1-3)]Gal(b1-4)GlcNAc(b1-3)Gal(b1-4)GlcNAc
# Outline: as §1
# [30] = molecular target: Fuc(a1-2)[GalNAc(a1-3)]Gal(b1-4)GlcNAc(b1-3)Gal(b1-4)GlcNAc(b1-3)Gal(b1-4)GlcNAc
# Outline: as §1
# [31] = molecular target: Fuc(a1-2)[GalNAc(a1-3)]Gal(b1-4)GlcNAc(b1-3)GalNAc
# Outline: as §1
# [32] = molecular target: Fuc(a1-2)[GalNAc(a1-3)]Gal(b1-4)GlcNAc(b1-3)[Fuc(a1-2)[GalNAc(a1-3)]Gal(b1-4)GlcNAc(b1-6)]GalNAc
# Outline: as §1
# [33] = molecular target: Fuc(a1-2)[GalNAc(a1-3)]Gal(b1-4)GlcNAc(b1-6)GalNAc
# Outline: as §1
# [34] = molecular target: Fuc(a1-2)[GalNAc(a1-3)]Gal(b1-4)[Fuc(a1-3)]GlcNAc
# Outline: as §1
# [35] = molecular target: Fuc(a1-2)[GalNAc(a1-3)]Gal(b1-4)[Fuc(a1-3)]GlcNAc(b1-3)GalNAc
# Outline: as §1
# [36] = molecular target: Fuc(a1-2)[GalNAc(a1-4)]Gal(b1-4)GlcNAc
# Outline: as §1
# [37] = molecular target: Fuc(a1-2)[GalNAc(b1-3)]Gal
# Outline: as §1
# Fuc(a1-3)GlcNAc = molecular target: Fuc(a1-3)GlcNAc
# Outline: as §1
# [38] = molecular target: Fuc(a1-3)[Gal(b1-4)]Glc6S
# Outline: as §1
# [39] = molecular target: Fuc(a1-3)[Gal(b1-4)]GlcNAc
# Outline: as §1
# [40] = molecular target: Fuc(a1-3)[Gal(b1-4)]GlcNAc(b1-2)Man
# Outline: as §1
# [41] = molecular target: Fuc(a1-3)[Gal(b1-4)]GlcNAc(b1-2)Man(a1-3)[Fuc(a1-3)[Gal(b1-4)]GlcNAc(b1-2)Man(a1-6)]Man(b1-4)GlcNAc(b1-4)GlcNAc
# Outline: as §1
# [42] = molecular target: Fuc(a1-3)[Gal(b1-4)]GlcNAc(b1-2)Man(a1-3)[Fuc(a1-3)[Gal(b1-4)]GlcNAc(b1-2)Man(a1-6)]Man(b1-4)GlcNAc(b1-4)[Fuc(a1-6)]GlcNAc
# Outline: as §1
# [43] = molecular target: Fuc(a1-3)[Gal(b1-4)]GlcNAc(b1-3)Gal(b1-3)[Fuc(a1-4)]GlcNAc
# Outline: as §1
# [44] = molecular target: Fuc(a1-3)[Gal(b1-4)]GlcNAc(b1-3)Gal(b1-4)[Fuc(a1-3)]GlcNAc
# Outline: as §1
# [45] = molecular target: Fuc(a1-3)[Gal(b1-4)]GlcNAc(b1-3)Gal(b1-4)[Fuc(a1-3)]GlcNAc(b1-3)Gal(b1-4)[Fuc(a1-3)]GlcNAc
# Outline: as §1
# [46] = molecular target: Fuc(a1-3)[Gal(b1-4)]GlcNAc(b1-3)GalNAc
# Outline: as §1
# [47] = molecular target: Fuc(a1-3)[Gal(b1-4)]GlcNAc(b1-4)Gal(b1-4)[Fuc(a1-3)]GlcNAc
# Outline: as §1
# [48] = molecular target: Fuc(a1-3)[Gal(b1-4)]GlcNAc(b1-4)Gal(b1-4)[Fuc(a1-3)]GlcNAc(b1-4)Gal(b1-4)[Fuc(a1-3)]GlcNAc
# Outline: as §1
# [49] = molecular target: Fuc(a1-3)[Gal(b1-4)]GlcNAc(b1-6)GalNAc
# Outline: as §1
# [50] = molecular target: Fuc(a1-3)[Gal(b1-4)]GlcNAc(b1-6)[Gal(b1-3)GlcNAc(b1-3)]Gal(b1-4)Glc
# Outline: as §1
# [51] = molecular target: Fuc(a1-3)[Gal(b1-4)]GlcNAc6S
# Outline: as §1
# [52] = molecular target: Fuc(a1-3)[Gal3S(b1-4)]Glc
# Outline: as §1
# [53] = molecular target: Fuc(a1-3)[Gal3S(b1-4)]Glc6S
# Outline: as §1
# [54] = molecular target: Fuc(a1-3)[Gal3S(b1-4)]GlcNAc
# Outline: as §1
# [55] = molecular target: Fuc(a1-3)[Gal3S(b1-4)]GlcNAc6S
# Outline: as §1
# [56] = molecular target: Fuc(a1-3)[GalNAc(b1-4)]Gal(b1-4)GlcNAc
# Outline: as §1
# [57] = molecular target: Fuc(a1-3)[GalNAc(b1-4)]GlcNAc
# Outline: as §1
# [58] = molecular target: Fuc(a1-3)[GalNAc(b1-4)]GlcNAc6S
# Outline: as §1
# Fuc(a1-4)GlcNAc = molecular target: Fuc(a1-4)GlcNAc
# Outline: as §1
binder,measurement,setting,value
B1,glycan array binding signal (z-score),[1],-0.421
same,glycan array binding signal (z-score),[2],-0.071
same,glycan array binding signal (z-score),[3],-0.292
same,glycan array binding signal (z-score),[4],-0.351
same,glycan array binding signal (z-score),[5],-0.424
same,glycan array binding signal (z-score),[6],1.24
same,glycan array binding signal (z-score),[7],0.144
same,glycan array binding signal (z-score),[8],-0.309
same,glycan array binding signal (z-score),[9],0.365
same,glycan array binding signal (z-score),[10],-0.436
same,glycan array binding signal (z-score),[11],-0.136
same,glycan array binding signal (z-score),[12],0.145
same,glycan array binding signal (z-score),[13],1.09
same,glycan array binding signal (z-score),[14],0.138
same,glycan array binding signal (z-score),[15],0.84
same,glycan array binding signal (z-score),[16],-0.197
same,glycan array binding signal (z-score),[17],-0.31
same,glycan array binding signal (z-score),[18],-0.474
same,glycan array binding signal (z-score),[19],-0.374
same,glycan array binding signal (z-score),[20],-0.478
same,glycan array binding signal (z-score),[21],-0.063
same,glycan array binding signal (z-score),[22],0.215
same,glycan array binding signal (z-score),[23],-0.175
same,glycan array binding signal (z-score),[24],-0.088
same,glycan array binding signal (z-score),[25],-0.378
same,glycan array binding signal (z-score),[26],-0.623
same,glycan array binding signal (z-score),[27],0.653
same,glycan array binding signal (z-score),[28],-0.163
same,glycan array binding signal (z-score),[29],-0.618
same,glycan array binding signal (z-score),[30],1.84
same,glycan array binding signal (z-score),[31],-0.58
same,glycan array binding signal (z-score),[32],-0.069
same,glycan array binding signal (z-score),[33],-0.352
same,glycan array binding signal (z-score),[34],0.075
same,glycan array binding signal (z-score),[35],0.619
same,glycan array binding signal (z-score),[36],-0.222
same,glycan array binding signal (z-score),[37],-0.195
same,glycan array binding signal (z-score),Fuc(a1-3)GlcNAc,-0.507
same,glycan array binding signal (z-score),[38],1.16
same,glycan array binding signal (z-score),[39],-0.457
same,glycan array binding signal (z-score),[40],-0.477
same,glycan array binding signal (z-score),[41],-0.403
same,glycan array binding signal (z-score),[42],0.679
same,glycan array binding signal (z-score),[43],-0.416
same,glycan array binding signal (z-score),[44],-0.073
same,glycan array binding signal (z-score),[45],-0.506
same,glycan array binding signal (z-score),[46],0.37
same,glycan array binding signal (z-score),[47],-0.271
same,glycan array binding signal (z-score),[48],-0.286
same,glycan array binding signal (z-score),[49],0.233
same,glycan array binding signal (z-score),[50],-0.364
same,glycan array binding signal (z-score),[51],0.326
same,glycan array binding signal (z-score),[52],-0.171
same,glycan array binding signal (z-score),[53],-0.279
same,glycan array binding signal (z-score),[54],-0.351
same,glycan array binding signal (z-score),[55],0.299
same,glycan array binding signal (z-score),[56],-0.279
same,glycan array binding signal (z-score),[57],-0.2
same,glycan array binding signal (z-score),[58],0.205
same,glycan array binding signal (z-score),Fuc(a1-4)GlcNAc,-0.396

# From the supplement of paper PMC8728848
